# Results from PubChem BioAssay (NCATS).
# The shares of active, inactive and inconclusive entries below differ from those in the screen. For part of these data: No potency is given beside an inconclusive call; the fits are too rough. Some compounds were tested as several samples or in several runs, with calls that do not always agree. The source made the active and inactive calls. Unless noted, calls follow the shape of the dose curve; as a rule, active = well fitted curve in the direction sought with a large enough effect; inconclusive = small, poorly fitted or top-dose-only effect, or another doubt; inactive = no such curve, though single readings can be large; an effect the other way counts as inactive or inconclusive.
# Legend:
# [1] = target: Dual specificity protein kinase CLK4 (Homo sapiens) (UniProt Q9HAZ1); assay: qHTS Assay for Inhibitors of CDC-like Kinase 4 (Kinase-Glo Assay) (AID 1770); conditions: recombinant Clk4, Kinase-Glo ATP depletion luminescence; series mostly up to 66.7 µM; also: nearly all actives have a fitted effect of over 65% in size; also: potency is read from the fitted curve at half-maximal effect
# UniProt Q9HAZ1, sequence (Q9HAZ1 whole entry, looked up): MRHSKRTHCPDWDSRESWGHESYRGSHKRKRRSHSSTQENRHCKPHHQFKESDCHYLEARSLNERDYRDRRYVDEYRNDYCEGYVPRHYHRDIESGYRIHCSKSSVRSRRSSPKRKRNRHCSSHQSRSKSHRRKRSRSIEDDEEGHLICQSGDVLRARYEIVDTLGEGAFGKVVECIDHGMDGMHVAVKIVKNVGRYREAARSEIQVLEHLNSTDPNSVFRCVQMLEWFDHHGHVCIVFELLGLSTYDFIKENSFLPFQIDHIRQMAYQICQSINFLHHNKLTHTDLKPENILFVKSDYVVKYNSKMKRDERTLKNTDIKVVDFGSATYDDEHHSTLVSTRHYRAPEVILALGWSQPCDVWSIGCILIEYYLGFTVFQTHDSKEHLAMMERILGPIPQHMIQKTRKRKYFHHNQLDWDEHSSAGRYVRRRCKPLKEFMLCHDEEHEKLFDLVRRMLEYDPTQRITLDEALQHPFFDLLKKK
# Method in brief: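 Luminescent ATP-depletion read-out (Kinase-Glo) after 4.5 h room-temperature reaction of Clk4 (25 nM final) with RS peptide (100 uM) and ATP (1 uM), pH 7.5 Tris buffer with MgCl2 and DTT.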
# [2] = Primary qHTS for small molecule stabilizers of the endoplasmic reticulum resident proteome: Secreted ER Calcium Modulated Protein (SERCaMP) assay (AID 1508630); conditions: SH-SY5Y GLuc-SERCaMP (Gaussia luciferase released on ER calcium loss) secretion, thapsigargin, luminescence; activity change, negative = inhibition: at 38.4 µM (top of the series) unless noted; also: potency is read from the fitted curve at half-maximal effect; as to activity change, negative = inhibition: % is scaled to controls: 0 for no effect and ±100 for the full control effect
# Method in brief: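 The SH-SY5Y reporter protocol was run at 3 concentrations up to 38.3 uM (primary) or 11 concentrations (follow-up): 16 h compound, 100 nM thapsigargin for 4 h, then extracellular luciferase luminescence.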
# [3] = AP1 Signaling Pathway (AID 357; active = well fitted curve in either direction with a large enough effect, not every such curve was filed as active; inconclusive = small, poorly fitted or top-dose-only effect, or another doubt;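 also: ME-180 reporter cells stimulated with EGF at its EC50 level; top concentration of the series differs between compounds; % is scaled to controls: 0 for no effect and ±100 for the full control effect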); conditions: ME-180 AP-1-bla reporter, EGF-induced, beta-lactamase ratio, 5 h; at 7.69 µM (top of the series) unless noted
# Method in brief: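 Cells are seeded overnight, exposed to compound titrations and an EC50 level of EGF for 5 hours at 37 °C, then loaded with CCF4 dye for 2.5 hours. Beta-lactamase activity under the AP-1 element is read as a blue/green ratio.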
# [4] = NFAT Signaling Pathway (AID 444; active = well fitted curve in either direction with a large enough effect, not every such curve was filed as active; inconclusive = small, poorly fitted or top-dose-only effect, or another doubt;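 also: carbachol stimulus at about its EC50 of 1 µM final; % is scaled to controls: 0 for no effect and ±100 for the full control effect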); conditions: Jurkat NFAT-bla M1, carbachol, beta-lactamase ratio, 5 h; at 7.69 µM (top of the series) unless noted
# Method in brief: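 Jurkat cells with NFAT-driven β-lactamase reporter and co-expressed M1 receptor, stimulated with carbachol (final 1 uM, ~EC50), compound titration, 5 h at 37 °C. CCF4 loaded 1 h at RT; 460/530 nm ratio gave %activity and AC50.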
# [5] = Stat Signaling Pathway (AID 446; active = well fitted curve in either direction with a large enough effect, not every such curve was filed as active; inconclusive = small, poorly fitted or top-dose-only effect, or another doubt;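 also: ME-180 cervical cancer cells given 40 pM IL-6 alongside compound; SIE-controlled beta-lactamase reporter measured as 460/530 nm FRET emission ratio; top concentration of the series differs between compounds; % is scaled to controls: 0 for no effect and ±100 for the full control effect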); conditions: ME-180 SIE beta-lactamase reporter, IL-6 stimulated, 5 h; at 7.69 µM (top of the series) unless noted
# Method in brief: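 Emission at 460 and 530 nm (excitation 405 nm) reports SIE-controlled beta-lactamase in ME-180 cells. Cells received compound with 40 pM IL-6 for 5 hrs at 37 C; data scaled between 300 pM IL-6 and 125 nM JAK-inhibitor controls.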
# [6] = target: Mitogen-activated protein kinase 10 (Mus musculus) (UniProt Q61831); assay: JNK3 AlphaScreen Assay (AID 530; active = well fitted curve in either direction with a large enough effect, not every such curve was filed as active; inconclusive = small, poorly fitted or top-dose-only effect, or another doubt;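 also: kinase came from lysate of stimulated human HepG2 cells; signal reports phosphorylation of biotinylated GST-cJun 1-79 at Ser73 with 10 µM ATP; potency is read from the fitted curve at half-maximal effect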); conditions: JNK3 lysate, c-Jun phosphorylation; activity change, negative = inhibition: at 57.1 µM (top of the series)
# Method in brief: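 HepG2 lysate (IL-1b/TNFa pre-activated) + biotin-GST-cJun 1-79 + anti-pSer73 cJun; cpd titration, 15 min RT; ATP 10 uM start; Tris pH 7.6, MgCl2, DTT, vanadate; beads in EDTA buffer; AlphaScreen.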
# [7] = qHTS Assay for Identification of Small Molecule Agonists for Hypoxia Response Element Signaling Pathway (AID 914; active = well fitted activation curve with a large enough effect in the signal ratio, with a control signal flat, not every such curve was filed as active; inconclusive = small, poorly fitted or top-dose-only effect, or effect the other way, or a change in a side signal; the % refers to the signal ratio; also: potency is read from the fitted curve at half-maximal effect); conditions: ME-180 (cervical carcinoma) HRE-bla reporter, beta-lactamase ratio, CoCl2, 17 h; activation: hits give high values
# Method in brief: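 Reporter activity (beta-lactamase, CCF4 460nm/530nm ratio) in HRE-bla ME-180 cells is recorded after 17 h compound exposure with EC50 CoCl2 at 37 degrees Celsius. AC50 values come from titration data.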
# [8] = target: Dual specificity protein kinase CLK4 (Homo sapiens) (UniProt Q9HAZ1); assay: qHTS Assay for Inhibitors of CDC-like Kinase 4 (ADP-Glo Assay) (AID 1771); conditions: recombinant CLK4, ADP-Glo luminescence; series mostly up to 80 µM; also: nearly all actives have a fitted effect of over 70% in size; also: potency is read from the fitted curve at half-maximal effect
# Method in brief: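 25 nM Clk4, 100 uM RS peptide, 1 uM ATP (final); 2 mM MgCl2, 0.5 mM EGTA, 2.5 mM DTT, 0.01% Triton X-100; 1 hr RT. ADP-Glo readout: ATP depletion 45 min, conversion/luciferase 30 min, luminescence.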
# [9] = target: Cytochrome P450 2C19 (Homo sapiens) (UniProt P33261); assay: qHTS Assay for Inhibitors and Substrates of Cytochrome P450 2C19 (AID 899); conditions: recombinant CYP2C19, luciferin-H EGE luminescence; series mostly up to 57.1 µM; also: potency is read from the fitted curve at half-maximal effect; nearly all actives have a fitted effect of over 60% in size
# UniProt P33261, sequence (P33261 whole entry, looked up): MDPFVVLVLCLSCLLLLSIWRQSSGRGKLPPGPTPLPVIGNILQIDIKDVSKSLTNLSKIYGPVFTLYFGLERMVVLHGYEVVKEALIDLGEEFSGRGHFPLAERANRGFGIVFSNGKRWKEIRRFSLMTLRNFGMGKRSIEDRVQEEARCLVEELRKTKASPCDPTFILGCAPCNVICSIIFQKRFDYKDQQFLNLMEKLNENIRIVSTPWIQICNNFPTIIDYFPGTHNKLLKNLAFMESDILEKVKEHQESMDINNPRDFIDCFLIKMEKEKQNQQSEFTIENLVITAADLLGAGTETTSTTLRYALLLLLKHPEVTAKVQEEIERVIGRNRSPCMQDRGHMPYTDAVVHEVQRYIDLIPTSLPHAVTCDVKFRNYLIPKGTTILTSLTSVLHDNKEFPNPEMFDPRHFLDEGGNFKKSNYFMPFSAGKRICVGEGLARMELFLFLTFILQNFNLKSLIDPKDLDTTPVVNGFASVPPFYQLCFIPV
# Method in brief: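 Signal comes from luciferase acting on luciferin released by CYP2C19-mediated hydroxylation of Luciferin-H EGE, 10uM (KM). Assay mix: 5nM enzyme, 50mM KPO4; 60 min at 37C with NADPH regeneration. Data normalized against 57uM ketoconazole.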
# [10] = target: Dual specificity protein kinase CLK4 (Homo sapiens) (UniProt Q9HAZ1); assay: qHTS Assay for Inhibitors of CDC-like Kinase 4 (ADP-FP Assay) (AID 1795); conditions: Transcreener ADP fluorescence polarization; series mostly up to 50 µM;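 also: recombinant human CLK4 phosphorylating RS repeat peptide at 1 µM ATP; potency is read from the fitted curve at half-maximal effect; nearly all actives have a fitted effect of over 60% in size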
# Method in brief: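 Kinase activity was measured as ADP production using Transcreener orange tracer (4 nM) and ADP antibody (1 ug/mL) fluorescence polarization, with ADP calculated from a calibration curve. The 1 h reaction contained 6.25 nM Clk4, 1 uM ATP and 100 uM RS peptide at pH 7.5 with Mg2+.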
# [11] = Counterscreen for APE1 Inhibitors: Fluorescent Dye Displacement Validation Assay (AID 1707); conditions: fluorescent dye displacement from DNA; series mostly up to 57.1 µM; also: potency is read from the fitted curve at half-maximal effect
# Method in brief: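 Endpoint fluorescence read at 480 nm excitation / 540 nm emission; DNA-binding compounds lower signal by displacing 250 nM Thiazole Orange from 50 nM dsDNA containing a tetrahydrofuran abasic site, Tris-HCl pH7.5 buffer with NaCl and MgCl2.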
# [12] = target: Endonuclease 4 (Escherichia coli (strain K12)) (UniProt P0A6C1); assay: Counterscreen for APE1 Inhibitors: qHTS Validation Assay for Inhibitors of Endonuclease IV (AID 1708); also: potency is read from the fitted curve at half-maximal effect; conditions: E. coli endonuclease IV, DNA cleavage fluorescence; series mostly up to 57.1 µM
# Method in brief: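 Read-out: fluorescence rise (ex 525/em 598 nm) from incision of a TAMRA/BHQ-2 double-stranded THF abasic-site substrate (50 nM), measured kinetically; third-minus-first read difference gave reaction progress. Enzyme 2 nM.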
# [13] = qHTS for differential inhibitors of proliferation of Plasmodium falciparum line GB4 (AID 1816); conditions: Potency: Plasmodium falciparum GB4 proliferation inhibition; series mostly up to 28.7 µM;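 also: parasite growth measured after 72 h incubation; 0% = vehicle DMSO and -100% = reference inhibitor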
# [14] = qHTS for differential inhibitors of proliferation of Plasmodium falciparum line D10 (AID 1877); conditions: series mostly up to 28.7 µM;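 also: potency is read from the fitted curve at half-maximal effect; parasites grown with compound for 72 h before DNA staining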
# [15] = qHTS Assay for Modulators of Human Peripheral Myelin Protein 22 (PMP22) Expression/Activity (AID 1967; active = well fitted curve in the direction sought with a large enough effect in the signal ratio; inconclusive = small, poorly fitted or top-dose-only effect, or effect the other way, or a change in a side signal; inactive = no such curve, though single readings can be large or run the other way; the % refers to the signal ratio;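 also: 0% = untreated cells and 100% end not stated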); conditions: Cell-based PMP22 reporter, dual-color luciferase ratio, mouse Pmp22 promoter in mouse Schwann cells; activity change (ratio): at 115 µM (top of the series), 0% = compound-free control cells
# Method in brief: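 Readout is the corrected green/red luminescence ratio after 24 h compound exposure, normalised to untreated cells (0%). Engineered MSC80 mouse Schwann cells express green luciferase from the mouse Pmp22 promoter and red luciferase from EF-alpha as internal control.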
# [16] = target: Ferritin light chain (Equus caballus) (UniProt P02791); assay: qHTS Validation Assay for Identification of Novel General Anesthetics (AID 2323); conditions: horse apoferritin, anesthetic-site fluorescent probe displacement; series mostly up to 76.9 µM; also: potency is read from the fitted curve at half-maximal effect
# UniProt P02791, sequence (P02791 whole entry, looked up): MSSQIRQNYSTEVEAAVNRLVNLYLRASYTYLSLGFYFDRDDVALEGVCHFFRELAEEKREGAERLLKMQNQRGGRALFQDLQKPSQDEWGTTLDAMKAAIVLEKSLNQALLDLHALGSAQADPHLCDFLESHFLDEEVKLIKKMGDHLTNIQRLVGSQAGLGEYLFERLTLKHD
# Method in brief: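 Competitive displacement of the profluorescent anesthetic 1-AMA (50% saturated, PBS) from 10 uM apoferritin, 10 min, room temperature. Activity is normalized 380/535 nm fluorescence; concentration-response fitted with a four-parameter Hill equation.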
# [17] = target: RecQ-like DNA helicase BLM (Homo sapiens) (UniProt P54132); assay: qHTS Validation Assay for Inhibitors of Bloom's syndrome helicase (BLM) (AID 2364); conditions: BLM helicase DNA unwinding, fluorescence, in vitro; series mostly up to 57.1 µM; also: potency is read from the fitted curve at half-maximal effect
# UniProt P54132, sequence (P54132 whole entry, looked up): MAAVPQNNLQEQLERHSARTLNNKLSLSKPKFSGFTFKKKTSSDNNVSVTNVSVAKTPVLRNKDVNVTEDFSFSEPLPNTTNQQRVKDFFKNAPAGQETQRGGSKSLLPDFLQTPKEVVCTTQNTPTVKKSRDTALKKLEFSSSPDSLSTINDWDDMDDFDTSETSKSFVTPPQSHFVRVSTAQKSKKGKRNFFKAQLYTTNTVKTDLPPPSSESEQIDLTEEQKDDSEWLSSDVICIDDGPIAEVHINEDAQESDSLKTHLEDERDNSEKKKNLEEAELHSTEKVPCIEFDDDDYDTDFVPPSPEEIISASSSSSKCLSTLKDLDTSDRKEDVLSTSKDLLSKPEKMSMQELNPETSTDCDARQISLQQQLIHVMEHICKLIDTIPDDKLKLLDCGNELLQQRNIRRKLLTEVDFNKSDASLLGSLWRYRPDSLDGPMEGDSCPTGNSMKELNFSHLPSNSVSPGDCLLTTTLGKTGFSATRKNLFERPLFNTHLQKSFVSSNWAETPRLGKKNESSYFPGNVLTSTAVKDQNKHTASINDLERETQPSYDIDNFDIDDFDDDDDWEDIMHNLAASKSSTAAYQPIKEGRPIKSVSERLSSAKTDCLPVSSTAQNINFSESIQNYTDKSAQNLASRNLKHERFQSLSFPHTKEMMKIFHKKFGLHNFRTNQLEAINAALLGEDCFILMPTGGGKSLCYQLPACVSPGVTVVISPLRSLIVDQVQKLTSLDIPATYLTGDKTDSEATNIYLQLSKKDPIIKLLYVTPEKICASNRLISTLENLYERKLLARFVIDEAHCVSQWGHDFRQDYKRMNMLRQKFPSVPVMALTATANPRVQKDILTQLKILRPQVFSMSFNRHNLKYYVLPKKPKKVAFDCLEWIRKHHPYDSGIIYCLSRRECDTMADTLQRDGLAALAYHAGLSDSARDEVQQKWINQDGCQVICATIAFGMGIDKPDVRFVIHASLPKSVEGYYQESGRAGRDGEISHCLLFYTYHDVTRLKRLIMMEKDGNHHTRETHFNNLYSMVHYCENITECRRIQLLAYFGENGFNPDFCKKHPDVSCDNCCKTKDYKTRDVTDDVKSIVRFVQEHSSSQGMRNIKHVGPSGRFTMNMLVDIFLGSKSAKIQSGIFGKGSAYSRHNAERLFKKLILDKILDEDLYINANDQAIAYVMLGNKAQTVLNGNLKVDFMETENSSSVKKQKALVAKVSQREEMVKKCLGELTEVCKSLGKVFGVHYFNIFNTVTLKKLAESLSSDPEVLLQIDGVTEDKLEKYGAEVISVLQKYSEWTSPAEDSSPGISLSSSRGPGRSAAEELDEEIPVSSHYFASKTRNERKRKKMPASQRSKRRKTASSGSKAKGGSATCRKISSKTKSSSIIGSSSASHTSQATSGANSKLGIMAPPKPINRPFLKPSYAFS
# Method in brief: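 50 nM BLM preincubated 15 min at room temperature with compound in pH 8.0 Tris buffer containing 2.5 ug/ml poly(dI-dC); started with 200 nM TAMRA/BHQ-2 forked duplex and 2 mM ATP (final). Unwinding read as TAMRA fluorescence increase, two reads 2 h apart.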
# [18] = Validation screen for small molecules that induce DNA re-replication in MCF 10A normal breast cells (AID 463097); conditions: MCF 10A cells, DNA re-replication phenotype imaging; series mostly up to 46.1 µM; also: potency is read from the fitted curve at half-maximal effect; nearly all actives have a fitted effect of over 60% in size
# Method in brief: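 Read-out is Hoechst total nuclear intensity by fluorescence scanning imager, flagging increased high-DNA-content nuclei. Compounds were incubated with MCF 10A cells for 48 hr (37 C, 5% CO2) before 40 min staining.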
# [19] = Quantitative high throughput screen for delayed death inhibitors of the malarial parasite plastid, 96 hour incubation (AID 488745); conditions: Plasmodium falciparum growth; series mostly up to 28.7 µM;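 also: luciferase-expressing P. falciparum in erythrocytes at 2% hematocrit and 0.1% parasitemia; % is scaled to controls: 0 for no effect and ±100 for the full control effect; nearly all actives have a fitted effect of over 70% in size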
# Method in brief: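 Luciferase-expressing P. falciparum, infected RBCs 2% Hct/0.1% parasitemia (final); 96 h cpd exposure, 37 C, 5% CO2; RPMI 1640 + 0.5% Albumax, bicarbonate, gentamycin. Readout: luminescence loss = growth inhibition.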
# [20] = target: 3',5'-cyclic-AMP phosphodiesterase 4B (Homo sapiens) (UniProt Q07343); assay: qHTS Assay for Inhibitors of PDE-IV (AID 607; active = well fitted activation curve with a large enough effect in the main read-out, with a control signal flat, not every such curve was filed as active; inconclusive = small, poorly fitted or top-dose-only effect, or effect the other way, or a change in a side signal; also: potency is read from the fitted curve at half-maximal effect); conditions: HEK293 ACTOne CNG channel cells, membrane potential fluorescence; activation (PDE inhibition): at 22.9 µM (top of the series)
# UniProt Q07343, sequence (Q07343 whole entry, looked up): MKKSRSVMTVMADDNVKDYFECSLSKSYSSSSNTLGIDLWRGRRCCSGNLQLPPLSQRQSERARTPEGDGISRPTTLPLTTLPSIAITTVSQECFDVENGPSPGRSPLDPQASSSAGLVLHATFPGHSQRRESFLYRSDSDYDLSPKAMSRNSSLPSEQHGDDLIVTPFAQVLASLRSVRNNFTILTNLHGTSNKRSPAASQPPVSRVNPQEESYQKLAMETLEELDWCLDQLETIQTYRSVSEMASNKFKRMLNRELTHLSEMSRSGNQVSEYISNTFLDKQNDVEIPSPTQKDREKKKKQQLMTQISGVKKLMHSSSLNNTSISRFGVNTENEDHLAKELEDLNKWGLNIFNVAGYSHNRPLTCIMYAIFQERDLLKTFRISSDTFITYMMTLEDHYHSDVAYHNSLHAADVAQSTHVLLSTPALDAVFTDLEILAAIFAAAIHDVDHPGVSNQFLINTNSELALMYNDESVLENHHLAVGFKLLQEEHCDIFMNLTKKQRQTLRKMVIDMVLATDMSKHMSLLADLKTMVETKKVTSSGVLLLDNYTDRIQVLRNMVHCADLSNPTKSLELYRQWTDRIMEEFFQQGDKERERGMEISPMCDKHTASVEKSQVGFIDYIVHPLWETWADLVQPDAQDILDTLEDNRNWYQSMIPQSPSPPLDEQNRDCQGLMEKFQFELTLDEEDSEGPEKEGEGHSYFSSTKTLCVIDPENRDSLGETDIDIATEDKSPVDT
# Method in brief: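 The readout is membrane depolarisation from a cAMP-sensing CNG channel, detected with a potential dye at ex 535/em 590. Cells were HEK293-derived (endogenous PDE-IV) at 1000 cells/well, titrated up to 22.9 uM final.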
# [21] = target: Cytochrome P450 2C9 (Homo sapiens) (UniProt P11712); assay: qHTS Assay for Inhibitors and Substrates of Cytochrome P450 2C9 (AID 883); conditions: recombinant CYP2C9, luciferin-H luminescence, 60 min; series mostly up to 57.1 µM; also: potency is read from the fitted curve at half-maximal effect; nearly all actives have a fitted effect of over 60% in size
# UniProt P11712, sequence (P11712 whole entry, looked up): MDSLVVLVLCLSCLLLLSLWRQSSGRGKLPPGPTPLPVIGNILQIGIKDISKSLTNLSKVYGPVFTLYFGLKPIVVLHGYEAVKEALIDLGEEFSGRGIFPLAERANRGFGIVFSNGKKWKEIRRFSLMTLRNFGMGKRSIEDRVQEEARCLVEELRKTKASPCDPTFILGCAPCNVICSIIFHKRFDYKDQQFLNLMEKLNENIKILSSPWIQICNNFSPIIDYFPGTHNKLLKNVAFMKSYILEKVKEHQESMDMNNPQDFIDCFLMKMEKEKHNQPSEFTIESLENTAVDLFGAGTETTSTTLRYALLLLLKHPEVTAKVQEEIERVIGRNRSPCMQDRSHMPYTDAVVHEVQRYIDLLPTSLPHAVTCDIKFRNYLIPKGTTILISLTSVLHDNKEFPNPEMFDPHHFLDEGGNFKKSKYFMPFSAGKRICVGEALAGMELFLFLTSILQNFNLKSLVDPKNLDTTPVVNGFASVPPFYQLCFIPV
# Method in brief: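 Signal: luciferase luminescence reporting luciferin produced by CYP2C9. Conditions: 10nM enzyme, Luciferin-H 100uM at KM, 25mM KPO4, 37C, 60 min NADPH-driven reaction. Reference: 57uM sulphaphenazole as 100% inhibition.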
# [22] = target: Ubiquitin carboxyl-terminal hydrolase 1 (Homo sapiens) (UniProt O94782); assay: Inhibitors of USP1/UAF1: Pilot qHTS (AID 504865); conditions: purified USP1/UAF1, Ub-rhodamine cleavage fluorescence; series mostly up to 54.9 µM;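 also: rhodamine fluorescence freed from ubiquitin-rhodamine substrate followed over time; potency is read from the fitted curve at half-maximal effect; nearly all actives have a fitted effect of over 35% in size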
# UniProt O94782, sequence (O94782 whole entry, looked up): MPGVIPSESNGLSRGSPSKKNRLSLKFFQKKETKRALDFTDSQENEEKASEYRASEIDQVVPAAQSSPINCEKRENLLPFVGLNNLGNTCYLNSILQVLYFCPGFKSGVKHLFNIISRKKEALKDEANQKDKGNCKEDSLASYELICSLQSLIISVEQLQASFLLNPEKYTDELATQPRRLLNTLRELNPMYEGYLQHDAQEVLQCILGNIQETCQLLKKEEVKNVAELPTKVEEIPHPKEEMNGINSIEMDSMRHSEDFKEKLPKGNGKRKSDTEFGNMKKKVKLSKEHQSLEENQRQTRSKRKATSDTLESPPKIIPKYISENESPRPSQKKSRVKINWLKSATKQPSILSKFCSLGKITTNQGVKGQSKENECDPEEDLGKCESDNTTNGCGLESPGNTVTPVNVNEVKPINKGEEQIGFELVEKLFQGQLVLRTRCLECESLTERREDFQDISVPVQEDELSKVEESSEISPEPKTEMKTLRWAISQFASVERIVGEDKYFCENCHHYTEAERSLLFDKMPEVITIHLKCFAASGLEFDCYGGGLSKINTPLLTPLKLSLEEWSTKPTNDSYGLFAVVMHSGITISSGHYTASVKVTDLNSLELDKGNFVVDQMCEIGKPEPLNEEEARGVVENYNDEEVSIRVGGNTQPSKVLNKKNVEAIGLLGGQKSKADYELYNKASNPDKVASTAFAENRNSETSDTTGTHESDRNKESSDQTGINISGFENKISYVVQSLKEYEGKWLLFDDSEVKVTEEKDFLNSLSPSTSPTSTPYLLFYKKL
# Method in brief: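 Deubiquitinase activity followed as kinetic rhodamine fluorescence release from 150 nM Ub-Rho. 1 nM USP1/UAF1 with compound, after 15 min room-temperature preincubation, in HEPES pH 7.8 buffer containing TCEP, EDTA, BSA and Tween-20.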
# Tags tell the direction and shape of the fitted curve or compound fluorescence and quenching.
smiles,measurement,setting,value
N#Cc1cccc(-c2nccc(-n3ccnc3)n2)c1,Potency,[1],active: 8.91 µM
same,Potency,[2],inactive
CN(C)c1ncc2nc(-c3ccccc3)c(=O)n(Cc3ccc(F)cc3)c2n1,"activity change, negative = inhibition",[3],inconclusive: 75.8% [activator]
same,"activity change, negative = inhibition",[4],inconclusive: 110% [activator]
same,"activity, negative = inhibition",[5],active: 178% [activator]
same,Potency,[6],"inconclusive [activator, full curve]"
same,Potency,[7],active: 0.501 µM
same,Potency,[1],inactive
same,Potency,[8],inactive
same,Potency,[2],inactive
CN(C)c1ncc2nc(-c3ccc(F)cc3)c(=O)n(C)c2n1,Potency,[1],inactive
same,Potency,[8],inactive
same,Potency,[2],inactive
COc1cccc(-c2cc(NCc3cnc(C)cn3)ncn2)c1,Potency,[9],"inconclusive [inhibitor, partial curve, poor fit]"
same,Potency,[7],"inconclusive [activator, single point]"
same,Potency,[1],active: 17.8 µM
same,Potency,[8],active: 15.8 µM
same,Potency,[10],"inconclusive [falling, partial curve]"
same,Potency,[2],inactive
COCCn1c(=O)c(-c2cc(F)cc(F)c2)nc2cncnc21,Potency,[1],inactive
same,Potency,[2],inactive
CCCCCCCCCCCCC/C=C/[C@@H](O)[C@@H](N)CO,Potency,[11],"inconclusive [inhibitor, single point]"
same,Potency,[12],"inconclusive [inhibitor, partial curve, poor fit]"
same,Potency,[13],inactive
same,Potency,[14],"inconclusive [inhibitor, single point]"
same,activity change (ratio),[15],inconclusive: 1.3%
same,Potency,[16],"inconclusive [inhibitor, partial curve]"
same,Potency,[17],"inconclusive [inhibitor, partial curve]"
same,Potency,[18],"inconclusive [activator, single point]"
same,Potency,[19],inactive
same,Potency,[2],active: 1.12 µM
COc1ccc(CNc2ncnc3ccc(-c4ccccc4C#N)cc23)c(OC)c1,Potency,[20],"inconclusive [activator, single point]"
same,Potency,[21],"inconclusive [inhibitor, partial curve]"
same,Potency,[7],"inconclusive [inhibitor, partial curve]"
same,Potency,[1],"inconclusive [falling, partial curve]"
same,Potency,[8],"inconclusive [falling, partial curve]"
same,Potency,[10],"inconclusive [falling, single point]"
same,Potency,[22],"inconclusive [inhibitor, single point]"
same,Potency,[2],"inconclusive [inhibitor, single point]"
